# Source: PubChem BioAssay AID686979 (National Center for Advancing Translational Sciences (NCATS), 2013)
# Among all 420,000 compounds or so, about 50,000 (12%) were called active. Inconclusive results, whose numbers are uncertain, are shown with a selection of clear calls. The call rests on the fitted dose curve; in most records, active means well fitted inhibition curve with a large enough effect; inconclusive means small, poorly fitted or top-dose-only effect; inactive means flat fitted curve, though single readings scatter. Potencies of inconclusive entries are left out as doubtful fits.
# Assay: qHTS for Inhibitors of human tyrosyl-DNA phosphodiesterase 1 (TDP1): qHTS in cells in presence of CPT; further: nearly all actives have a fitted effect of over 55% in size
# Details: chicken DT40 Tdp1-/-;hTDP1 cells + 20 nM CPT, ATP luminescence, 48 h; activity change, negative = growth inhibition: at 46.2 µM (top of the series)
# Summary of the method: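 Cell growth measured by CellTiter-Glo luminescence after a minimum 48 h, 37 C compound exposure with 20 nM CPT in Tdp1-knockout DT40 cells stably expressing hTDP1, seeded 400/well; qHTS titration format.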
# On the % scale 0 is the no-effect control and ±100 the full control effect; potency means the concentration at half of the fitted maximal effect; tags describe the fitted curve by direction and shape.
Structure (SMILES),Potency,"activity change, negative = growth inhibition"
O=c1c2c([N+](=O)[O-])cc([N+](=O)[O-])cc2nc2ccccn12,"inconclusive [inhibitor, single point]",–
COc1ccc(OC)c(NC(=O)Cn2c(=O)n(-c3ccc(Cl)cc3)c(=O)c3c(C)c(C)sc32)c1,"inconclusive [inhibitor, single point]",–
COc1ccc(-c2nc3cc(C)c(Br)c(C)n3c2Cc2ccccc2)cc1OC,"inconclusive [inhibitor, single point]",–
O=C1CC(c2ccc(F)cc2F)c2cc3c(cc2N1)OCO3 (centres undefined),"inconclusive [inhibitor, partial curve, poor fit]",–
COc1ccc(C(=O)N(c2ccc(C)cc2)S(=O)(=O)c2ccc(C)cc2)cc1,active: 18.4 µM,–
COc1ccc(Cl)cc1NC(=O)C1CCN(S(=O)(=O)c2ccc(F)cc2)CC1,"inconclusive [inhibitor, single point]",–
Cc1ccc(N2C(=O)CS(=O)(=O)C23C(=O)N(Cc2ccc(Cl)cc2)c2ccccc23)cc1C (centres undefined),"inconclusive [inhibitor, single point]",–
COc1ccc(-n2c(Cc3cccn3C)nnc2SCC(=O)Nc2ccccc2OC)cc1,"inconclusive [inhibitor, single point]",–
COc1ccc(-c2ccc(N(C)C)cc2)cc1[C@H]1[C@@H]2C=CCC[C@@]2(C)C(=O)N1Cc1ccccc1,active: 29.1 µM,–
CN1CCN(c2ccc(S(=O)(=O)N3CCOCC3)cc2NC(=O)COc2ccc(F)cc2Cl)CC1,active: 25.9 µM,–
C=C(C)CN(CC)C(=O)CN1C(=O)NC(C)(c2ccc3ccccc3c2)C1=O (centres undefined),–,inactive: -26.5%
COc1cc(C(=O)Nc2cc(-c3ccccc3)[nH]n2)cc(OC)c1OC,"inconclusive [inhibitor, single point]",–
CCCCNS(=O)(=O)c1ccc(S(=O)(=O)NCc2ccncc2)cc1,active: 4.11 µM,–
COc1ccc(C(=O)NC(C)c2nnc(SCC(=O)NC3CCCC3)n2C)cc1 (centres undefined),–,inactive: -9.13%
O=C(COC(=O)c1cccnc1Cl)NC(=O)c1ccc(OC(F)F)cc1,–,inactive: 5.18%
CCc1nnc(NC(=O)CSCc2cc(=O)n3ccsc3n2)s1,–,inactive: -17%
CCn1c(SCC(=O)Nc2cc(C)on2)nc2c([nH]c3ccccc32)c1=O,"inconclusive [inhibitor, single point]",–
COc1ccc(/C=C2\C(=O)NC(=S)N2C(=O)c2ccc(C)cc2)cc1,"inconclusive [inhibitor, partial curve]",–
COc1ccc(C(O)c2nc(-c3cnn(C)c3)cs2)cc1 (centres undefined),"inconclusive [inhibitor, single point]",–
